Experimental data as given in PMC10407929.
This is one part of the list. The protein was read in a cell extract, so binding may be indirect.

Assays:
Test in all cases: pull-down
Conditions in all cases: 150 mM NaCl, 50 mM Tris pH 8.0, 0.25% NP-40, 1 mM DTT; 4 C, 2 h; 100 ug nuclear extract; double strand, one strand shown
APTX (Homo sapiens) = APTX (Homo sapiens) (UniProt Q7Z2E3)
BANF1 (Homo sapiens) = molecular target: T1, BANF1 (Homo sapiens) (UniProt O75531)
T1 sequence: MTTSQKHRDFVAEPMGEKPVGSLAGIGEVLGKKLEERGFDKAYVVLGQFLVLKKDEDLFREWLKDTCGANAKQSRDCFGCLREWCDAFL

HMGA1 (Homo sapiens) [1] = molecular target: T2, HMGA1 (Homo sapiens) (UniProt P17096)
T2 sequence: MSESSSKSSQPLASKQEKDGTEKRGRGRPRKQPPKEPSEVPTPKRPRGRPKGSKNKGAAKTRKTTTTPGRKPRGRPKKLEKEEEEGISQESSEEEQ

HMGA1 (Homo sapiens) [2] = molecular target: T3, HMGA1 (Homo sapiens) (UniProt P17096); remark: listed apart in the source
T3 sequence: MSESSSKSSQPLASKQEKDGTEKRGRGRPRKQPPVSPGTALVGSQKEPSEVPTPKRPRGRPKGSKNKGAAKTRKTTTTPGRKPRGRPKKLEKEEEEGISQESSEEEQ

BCOR (Homo sapiens) = BCOR (Homo sapiens) (UniProt Q6W2J9)
CREB1 = CREB1 (UniProt P16220)
DDB1 (Homo sapiens) = DDB1 (Homo sapiens) (UniProt Q16531)
HLTF (Homo sapiens) = molecular target: T4, HLTF (Homo sapiens) (UniProt Q14527)
T4 sequence: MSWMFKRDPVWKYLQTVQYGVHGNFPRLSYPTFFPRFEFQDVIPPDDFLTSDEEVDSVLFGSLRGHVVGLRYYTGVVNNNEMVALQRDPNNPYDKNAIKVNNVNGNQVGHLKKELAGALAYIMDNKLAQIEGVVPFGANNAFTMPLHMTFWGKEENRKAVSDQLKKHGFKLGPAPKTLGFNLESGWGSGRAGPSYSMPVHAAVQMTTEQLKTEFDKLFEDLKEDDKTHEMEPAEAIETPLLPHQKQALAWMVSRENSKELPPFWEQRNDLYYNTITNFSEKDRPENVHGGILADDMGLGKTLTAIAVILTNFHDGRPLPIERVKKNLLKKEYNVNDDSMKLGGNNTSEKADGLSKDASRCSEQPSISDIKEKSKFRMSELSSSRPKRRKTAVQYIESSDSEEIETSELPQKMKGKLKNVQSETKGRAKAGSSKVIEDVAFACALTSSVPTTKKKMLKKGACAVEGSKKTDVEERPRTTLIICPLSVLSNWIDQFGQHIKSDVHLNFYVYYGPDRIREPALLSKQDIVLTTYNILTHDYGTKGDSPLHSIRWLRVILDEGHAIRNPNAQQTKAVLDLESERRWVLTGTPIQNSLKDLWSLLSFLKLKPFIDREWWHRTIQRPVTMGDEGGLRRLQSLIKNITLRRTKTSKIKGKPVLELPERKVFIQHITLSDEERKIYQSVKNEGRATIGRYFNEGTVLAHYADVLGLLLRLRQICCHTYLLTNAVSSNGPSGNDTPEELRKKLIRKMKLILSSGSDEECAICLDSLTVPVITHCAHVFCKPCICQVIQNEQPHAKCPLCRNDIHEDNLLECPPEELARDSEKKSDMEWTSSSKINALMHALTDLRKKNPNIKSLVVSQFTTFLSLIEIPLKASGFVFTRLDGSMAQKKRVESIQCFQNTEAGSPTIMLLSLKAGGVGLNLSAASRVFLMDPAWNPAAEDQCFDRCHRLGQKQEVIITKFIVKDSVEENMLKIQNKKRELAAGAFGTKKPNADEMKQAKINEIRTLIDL

HNRNPH3 (Homo sapiens) = molecular target: T5, HNRNPH3 (Homo sapiens) (UniProt P31942)
T5 sequence: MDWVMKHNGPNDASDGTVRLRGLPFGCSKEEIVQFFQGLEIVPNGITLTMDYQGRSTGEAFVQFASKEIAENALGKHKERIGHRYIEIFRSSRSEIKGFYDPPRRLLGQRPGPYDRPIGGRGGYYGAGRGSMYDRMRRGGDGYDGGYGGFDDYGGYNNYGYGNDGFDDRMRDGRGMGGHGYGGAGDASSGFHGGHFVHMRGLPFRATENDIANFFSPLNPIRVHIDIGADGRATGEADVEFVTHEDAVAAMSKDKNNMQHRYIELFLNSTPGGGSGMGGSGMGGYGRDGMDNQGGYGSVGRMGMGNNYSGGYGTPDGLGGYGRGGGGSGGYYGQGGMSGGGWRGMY

HSPA1B (Homo sapiens) = HSPA1B (Homo sapiens) (UniProt P0DMV9)
HSPA5 (Homo sapiens) = HSPA5 (Homo sapiens) (UniProt P11021)
HSPA8 (Homo sapiens) = HSPA8 (Homo sapiens) (UniProt P11142)
HSPA9 (Homo sapiens) = HSPA9 (Homo sapiens) (UniProt P38646)
KDM2B (Homo sapiens) = molecular target: T6, KDM2B (Homo sapiens) (UniProt Q8NHM5)
T6 sequence: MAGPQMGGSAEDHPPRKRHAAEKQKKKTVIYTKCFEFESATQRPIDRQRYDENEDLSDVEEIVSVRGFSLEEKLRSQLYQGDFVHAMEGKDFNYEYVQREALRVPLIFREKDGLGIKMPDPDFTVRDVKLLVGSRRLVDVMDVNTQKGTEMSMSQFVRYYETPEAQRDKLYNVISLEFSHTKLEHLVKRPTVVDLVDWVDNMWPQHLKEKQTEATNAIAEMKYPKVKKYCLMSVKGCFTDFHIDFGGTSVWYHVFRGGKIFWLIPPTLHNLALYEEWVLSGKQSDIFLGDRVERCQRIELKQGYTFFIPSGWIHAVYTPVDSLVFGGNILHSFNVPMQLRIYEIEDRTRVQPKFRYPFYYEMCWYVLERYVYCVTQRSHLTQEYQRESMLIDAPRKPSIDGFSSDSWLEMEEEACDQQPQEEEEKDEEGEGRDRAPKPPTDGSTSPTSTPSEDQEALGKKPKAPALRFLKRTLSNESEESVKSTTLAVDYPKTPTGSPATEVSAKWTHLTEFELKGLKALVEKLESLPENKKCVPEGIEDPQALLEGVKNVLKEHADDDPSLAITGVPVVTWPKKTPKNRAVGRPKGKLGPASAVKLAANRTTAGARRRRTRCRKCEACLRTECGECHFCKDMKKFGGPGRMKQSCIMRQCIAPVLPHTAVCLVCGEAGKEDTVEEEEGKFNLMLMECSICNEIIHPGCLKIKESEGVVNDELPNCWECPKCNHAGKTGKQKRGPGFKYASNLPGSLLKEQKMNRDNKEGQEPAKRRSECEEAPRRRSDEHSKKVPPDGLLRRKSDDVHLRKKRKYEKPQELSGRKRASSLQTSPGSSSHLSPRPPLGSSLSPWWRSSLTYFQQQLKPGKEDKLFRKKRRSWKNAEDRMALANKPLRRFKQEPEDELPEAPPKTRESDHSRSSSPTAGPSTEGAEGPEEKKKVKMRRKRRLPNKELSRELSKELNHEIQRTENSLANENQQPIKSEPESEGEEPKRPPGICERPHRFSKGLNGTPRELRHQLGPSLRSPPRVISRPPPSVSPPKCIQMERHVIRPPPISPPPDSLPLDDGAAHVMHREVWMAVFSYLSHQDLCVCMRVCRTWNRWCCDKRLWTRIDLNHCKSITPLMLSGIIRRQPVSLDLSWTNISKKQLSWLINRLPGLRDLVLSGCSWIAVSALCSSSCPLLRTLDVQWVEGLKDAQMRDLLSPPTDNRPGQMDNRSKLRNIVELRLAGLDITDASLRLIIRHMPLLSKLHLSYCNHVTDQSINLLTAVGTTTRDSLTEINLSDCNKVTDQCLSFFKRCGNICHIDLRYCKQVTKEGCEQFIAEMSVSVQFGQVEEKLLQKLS

UniProt Q7Z2E3, sequence (Q7Z2E3 whole entry): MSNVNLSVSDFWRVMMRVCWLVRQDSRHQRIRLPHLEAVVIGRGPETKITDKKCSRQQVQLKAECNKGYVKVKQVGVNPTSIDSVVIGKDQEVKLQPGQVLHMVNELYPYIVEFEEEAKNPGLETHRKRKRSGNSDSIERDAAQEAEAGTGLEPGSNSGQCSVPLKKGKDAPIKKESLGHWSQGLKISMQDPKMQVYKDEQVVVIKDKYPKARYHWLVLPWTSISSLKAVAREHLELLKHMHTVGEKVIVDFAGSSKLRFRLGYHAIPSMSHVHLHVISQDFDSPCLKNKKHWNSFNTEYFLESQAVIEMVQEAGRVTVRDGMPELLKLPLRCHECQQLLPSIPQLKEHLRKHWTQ
UniProt P11021, sequence (P11021 whole entry): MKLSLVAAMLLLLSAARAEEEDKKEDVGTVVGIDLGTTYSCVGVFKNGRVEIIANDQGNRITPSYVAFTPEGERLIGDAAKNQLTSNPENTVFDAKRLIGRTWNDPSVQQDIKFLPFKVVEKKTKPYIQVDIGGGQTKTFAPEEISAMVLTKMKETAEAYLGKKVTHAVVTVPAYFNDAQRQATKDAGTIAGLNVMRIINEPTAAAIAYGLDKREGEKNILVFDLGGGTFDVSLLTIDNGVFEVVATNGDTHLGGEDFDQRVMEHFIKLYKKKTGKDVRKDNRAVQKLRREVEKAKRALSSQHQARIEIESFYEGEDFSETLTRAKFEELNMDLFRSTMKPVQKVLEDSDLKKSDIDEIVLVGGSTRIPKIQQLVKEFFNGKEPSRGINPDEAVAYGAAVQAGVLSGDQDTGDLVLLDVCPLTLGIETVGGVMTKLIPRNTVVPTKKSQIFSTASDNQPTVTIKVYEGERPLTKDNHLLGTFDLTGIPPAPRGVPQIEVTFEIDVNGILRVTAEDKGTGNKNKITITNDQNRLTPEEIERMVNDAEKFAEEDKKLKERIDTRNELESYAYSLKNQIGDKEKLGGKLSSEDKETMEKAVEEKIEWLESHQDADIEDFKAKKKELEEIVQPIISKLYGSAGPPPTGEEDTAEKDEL
UniProt P16220, sequence (P16220 other isoform, or with tags, fused parts or gaps): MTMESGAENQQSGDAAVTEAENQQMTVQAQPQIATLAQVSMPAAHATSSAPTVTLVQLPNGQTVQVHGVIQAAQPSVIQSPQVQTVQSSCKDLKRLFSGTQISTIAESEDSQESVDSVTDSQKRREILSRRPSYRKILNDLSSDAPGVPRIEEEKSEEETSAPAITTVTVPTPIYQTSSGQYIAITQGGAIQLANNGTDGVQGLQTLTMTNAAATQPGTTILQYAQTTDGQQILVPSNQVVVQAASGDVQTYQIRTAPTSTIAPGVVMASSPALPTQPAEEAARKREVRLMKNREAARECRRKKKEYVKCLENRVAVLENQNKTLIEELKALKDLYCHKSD
UniProt Q6W2J9, sequence (Q6W2J9 whole entry): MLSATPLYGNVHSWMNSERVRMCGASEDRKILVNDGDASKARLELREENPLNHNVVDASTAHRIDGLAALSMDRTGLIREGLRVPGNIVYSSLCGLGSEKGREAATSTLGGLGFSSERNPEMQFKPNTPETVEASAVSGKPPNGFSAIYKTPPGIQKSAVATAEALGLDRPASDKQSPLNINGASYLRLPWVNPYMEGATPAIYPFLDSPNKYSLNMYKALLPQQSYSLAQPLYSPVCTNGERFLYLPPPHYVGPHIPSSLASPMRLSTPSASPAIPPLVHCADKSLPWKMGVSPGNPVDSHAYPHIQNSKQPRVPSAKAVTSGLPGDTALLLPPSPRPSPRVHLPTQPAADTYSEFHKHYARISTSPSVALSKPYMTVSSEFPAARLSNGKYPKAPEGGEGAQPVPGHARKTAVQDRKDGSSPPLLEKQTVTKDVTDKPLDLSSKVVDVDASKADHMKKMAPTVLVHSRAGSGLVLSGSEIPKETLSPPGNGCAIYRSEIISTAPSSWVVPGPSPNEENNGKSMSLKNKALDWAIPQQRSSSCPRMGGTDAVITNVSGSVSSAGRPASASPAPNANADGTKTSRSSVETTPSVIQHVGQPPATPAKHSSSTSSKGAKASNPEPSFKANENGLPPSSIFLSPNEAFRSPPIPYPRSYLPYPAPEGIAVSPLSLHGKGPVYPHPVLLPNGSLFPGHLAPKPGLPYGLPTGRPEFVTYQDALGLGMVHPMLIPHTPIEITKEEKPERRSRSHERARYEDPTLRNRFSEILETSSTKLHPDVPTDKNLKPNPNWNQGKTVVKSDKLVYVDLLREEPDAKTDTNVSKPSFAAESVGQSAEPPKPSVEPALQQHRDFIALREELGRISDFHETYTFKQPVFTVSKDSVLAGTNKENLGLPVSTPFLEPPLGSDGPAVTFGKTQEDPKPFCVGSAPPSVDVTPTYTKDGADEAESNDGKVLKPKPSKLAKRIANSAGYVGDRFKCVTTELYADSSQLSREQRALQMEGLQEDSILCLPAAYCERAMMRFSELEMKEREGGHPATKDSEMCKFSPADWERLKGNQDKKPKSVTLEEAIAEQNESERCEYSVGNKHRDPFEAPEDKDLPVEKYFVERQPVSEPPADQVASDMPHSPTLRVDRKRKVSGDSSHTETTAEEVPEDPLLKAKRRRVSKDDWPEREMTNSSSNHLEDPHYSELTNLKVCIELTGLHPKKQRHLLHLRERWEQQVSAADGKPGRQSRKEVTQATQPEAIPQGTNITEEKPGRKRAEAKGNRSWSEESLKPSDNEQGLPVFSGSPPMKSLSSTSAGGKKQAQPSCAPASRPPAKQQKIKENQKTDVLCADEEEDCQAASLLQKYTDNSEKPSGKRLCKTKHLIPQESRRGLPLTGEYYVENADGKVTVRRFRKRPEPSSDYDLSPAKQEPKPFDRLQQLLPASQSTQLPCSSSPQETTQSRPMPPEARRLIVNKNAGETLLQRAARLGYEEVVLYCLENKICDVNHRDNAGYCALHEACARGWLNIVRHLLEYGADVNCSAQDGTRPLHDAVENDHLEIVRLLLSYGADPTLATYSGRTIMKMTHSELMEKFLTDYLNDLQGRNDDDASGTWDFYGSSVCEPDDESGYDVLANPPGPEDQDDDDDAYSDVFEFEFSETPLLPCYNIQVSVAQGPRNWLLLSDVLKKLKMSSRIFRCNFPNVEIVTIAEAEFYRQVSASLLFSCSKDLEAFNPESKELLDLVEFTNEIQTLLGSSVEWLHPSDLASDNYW
UniProt P38646, sequence (P38646 whole entry): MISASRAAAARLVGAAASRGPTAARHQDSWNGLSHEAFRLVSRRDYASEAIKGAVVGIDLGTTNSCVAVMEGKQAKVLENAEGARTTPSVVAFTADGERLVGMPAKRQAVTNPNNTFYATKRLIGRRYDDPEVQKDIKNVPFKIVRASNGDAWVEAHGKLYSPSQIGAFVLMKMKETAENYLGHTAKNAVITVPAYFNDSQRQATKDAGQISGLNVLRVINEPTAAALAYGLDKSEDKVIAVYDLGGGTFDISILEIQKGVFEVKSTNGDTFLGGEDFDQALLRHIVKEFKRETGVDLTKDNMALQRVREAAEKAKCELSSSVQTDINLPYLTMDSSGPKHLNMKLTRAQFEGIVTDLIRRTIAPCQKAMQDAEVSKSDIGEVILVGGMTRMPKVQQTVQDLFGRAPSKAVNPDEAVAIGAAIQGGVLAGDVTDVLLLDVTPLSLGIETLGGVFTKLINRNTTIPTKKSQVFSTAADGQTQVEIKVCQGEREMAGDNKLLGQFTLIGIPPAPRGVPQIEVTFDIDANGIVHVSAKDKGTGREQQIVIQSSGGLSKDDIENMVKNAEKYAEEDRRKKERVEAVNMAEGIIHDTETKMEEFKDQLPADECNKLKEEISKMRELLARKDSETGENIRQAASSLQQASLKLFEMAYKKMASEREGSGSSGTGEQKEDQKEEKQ

Row | Sequence | half-maximal binding (APTX (Homo sapiens)) [nM] | half-maximal binding (BANF1 (Homo sapiens)) [nM] | half-maximal binding (HMGA1 (Homo sapiens) [1]) [nM] | half-maximal binding (HMGA1 (Homo sapiens) [2]) [nM] | half-maximal binding (BCOR (Homo sapiens)) [nM] | half-maximal binding (CREB1) [nM] | half-maximal binding (DDB1 (Homo sapiens)) [nM] | half-maximal binding (HLTF (Homo sapiens)) [nM] | half-maximal binding (HNRNPH3 (Homo sapiens)) [nM] | half-maximal binding (HSPA1B (Homo sapiens)) [nM] | half-maximal binding (HSPA5 (Homo sapiens)) [nM] | half-maximal binding (HSPA8 (Homo sapiens)) [nM] | half-maximal binding (HSPA9 (Homo sapiens)) [nM] | half-maximal binding (KDM2B (Homo sapiens)) [nM]
1 | GAGAGAAAATAAAACTGGCT [SP/KLF negative control bait] | 500 | 633 | 446 | 448 | – | – | – | – | – | – | – | – | – | –
2 | GCCGCCGCCCTCCCACGCGCTGCCGGGCC [BEND3 bait] | 191 | 301 | – | – | 546 | 238 | 266 | 401 | 110 | 448 | 380 | 262 | 178 | 397
